# Experimental data reported in paper PMC12040169 (PLOS Biology, 2025).
# The list shows a part of the results.
# Test system: T1, C. trachomatis L2/434/Bu expressing GFP (CTL2-GFP)
# T1 construct: L2/434/Bu GFP intracellular growth in HeLa cells
# Design: species or system HeLa; C. trachomatis total inclusion area by high-content imaging, normalised to DMSO
# Conditions: total inclusion area; 28.5 h, 10 µM; inhibitor
# Procedure, shortened: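 High-content images of fixed, Hoechst-stained infected cultures supply inclusion area and count (growth) plus nuclei number (viability), complementing bulk GFP/resorufin fluorescence. MIC determination is unchanged from the primary assay.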
row,SMILES,% of control remaining
1,Cn1c(CN2CCN(C(=O)Nc3ccccc3)CC2)nc2cc([N+](=O)[O-])ccc21 [CBK268260],88.8842
2,COc1ccc2[nH]c3c(c2c1)CCOC31CCN(CCC(F)=C(F)F)CC1 [CBK040118],70.3211
3,Oc1cc(C(F)(F)F)nc(CCc2ccc(Cl)cc2)n1 [CBK003678],86.3894
4,CS(=O)(=O)N1CC2(CCN(Cc3ccccc3F)CC2)c2ccccc21 [CBK084004],88.9057
5,Cc1ccc2c(c1)C1(CCN(C/C=C\c3ccccc3)CC1)NC(=O)C2 [CBK040216],93.3134
6,C=CCN1C(=O)C2(CC(=O)N(CC(=O)N(C)C)C2=O)c2cc(OC)ccc21 (stereo not drawn) [CBK075227],99.3116
7,COc1cccc(NC(=O)CC(CN2CCN(c3ccccc3)CC2)C(=O)O)c1 (stereo not drawn) [CBK286789],107.043
8,Nc1cc(=O)[nH]c(=O)n1CCc1ccccc1 [CBK269984],87.6937
9,Cc1nc2ccc(NC(=O)N3CCC(c4ccccc4)C3)cc2s1 (stereo not drawn) [CBK266512],97.858
10,COc1ccc2[nH]c3c(c2c1)CCN(CCc1ccc(F)cc1)C3 [CBK082819T],92.7737
11,CC(C)N1CCC(N(C)Cc2nc3ccccc3[nH]2)CC1 [CBK283021],102.954
12,CN1CCC(N(C)C(=O)NCc2ccc(Cl)c(Cl)c2)C1 (stereo not drawn) [CBK155996],94.1618
13,CC(=O)NCC(=O)N1CCC2(C/C=C/CNC(=O)c3ccccc3OCCNC2=O)CC1 [CBK292006],129.096
14,CC1(C#N)CCCN(Cc2c[nH]nc2C(=O)O)C1 (stereo not drawn) [CBK307010],41.0523
15,COc1ccccc1C(=O)Nc1ccc(Cl)c(C(=O)O)c1 [CBK287034],73.9386
16,COc1ccc(/C=C/C2=CCN(C)CC2)cc1Cn1cccn1 [CBK283859],100.899
17,O=C(O)CCn1cc(Br)c([N+](=O)[O-])n1 [CBK286916],113.429
18,N#Cc1ccc(S(=O)(=O)N2CCC(OCc3ccncc3)C2)cn1 (stereo not drawn) [CBK305478],94.3507
19,O=C1C2(c3ccccc3)CN(CCCO)CC1(c1ccccc1)CN(CCCO)C2 [CBK265912],83.0998
20,O=C(NC1CCCCC1)c1csc(-c2ccncc2)n1 [CBK288591],117.895
21,OCCCNc1cc(Nc2ccccc2)n2nccc2n1 [CBK037078],114.361

row,SMILES,% of control remaining
1,CC(C)(N)CNC(=O)c1cc(C(C)(C)C)nn1Cc1ccc(Cl)cc1Cl [CBK107296],28.1905
2,CCN(C)c1c(C)nc2c(OCc3ccccc3C(=O)OC)cccn12 [CBK147321],85.0797
3,COc1ccc(O)c(-c2c(-c3ccc(C)cc3)n[nH]c2C)c1 [CBK287961],123.758
4,CCNc1cncc(-c2ccccc2)n1 [CBK065847],120.349
5,O=C(/C=C/C=C/c1ccccc1)CC1(O)C(=O)N(Cc2cccc3ccccc23)c2ccccc21 (stereo not drawn) [CBK264744],94.0894
6,CCC1CCCCN1C(=O)c1cc2ccccc2o1 (stereo not drawn) [CBK078549],89.1107
7,O=C(CSc1nc(N2CCOCC2)nc(N2CCOCC2)n1)c1ccc([N+](=O)[O-])cc1 [CBK269107],95.7092
8,CC1=C(C)C(=NNC(N)=S)C(C)=C(C)C1=NNC(N)=S [CBK261262],18.4503
9,O=C(Nc1ccc2nsnc2c1NC(=O)c1ccc2nsnc2c1)c1ccc2nsnc2c1 [CBK264309],102.069
10,COc1ccccc1CC(=O)N1CCCC1c1nc2ccccc2[nH]1 (stereo not drawn) [CBK285517],100.218
11,CNC(=O)c1ccc(NC(=O)N2CCCCC2c2ccnn2C)cc1 (stereo not drawn) [CBK305521],86.1441
12,CN(C)CCNc1c2c(nc3ccccc13)CCC2 [CBK263732C],106.882
13,Cn1cc(C2CCCCCN2C(=O)c2nn(C)cc2Cl)cn1 (stereo not drawn) [CBK284972],119.838
14,Oc1cccc2ccc(-n3ccnc3)nc12 [CBK017812],124.634
15,Cc1ccccc1C(NC(=O)C1CCN(C(=O)NCCc2ccccc2)CC1)c1ncccc1C (stereo not drawn) [CBK060409],103.85
16,O=c1c(N2CCN(CCOc3ccccc3)CC2)nccn1CCOc1cc(F)c(F)cc1F [CBK045934C],105.307
17,CCCNC(=O)NCCc1cccs1 [CBK043675],110.846
18,S=c1n(CN2CCC3(CC2)OCCO3)nc(-c2ccccc2Cl)n1-c1ccccc1 [CBK265222],95.2194
19,COc1ccccc1N1CCN(C(=O)c2ccccc2C(=O)c2ccccc2)CC1 [CBK091506],88.0469
20,CC(=O)NC(=S)Nc1ccc(Oc2ccccc2)cc1 [CBK288454],39.41
21,CCCC(=O)Nc1ccc(OCc2ncc(C(C)C)o2)c(C(C)=O)c1 [CBK305516],126.561

row,SMILES,% of control remaining
1,COc1ccc(-n2cc(-c3ccccc3C(F)(F)F)nn2)cc1OC [CBK112965],90.6387
2,COc1ccc2c(c1)C1(Nc3ccccc3C(=O)N1c1ccccc1)C(=O)N2 (stereo not drawn) [CBK103747],74.5711
3,Cc1ccccc1OCC(=O)NN1CCN(C)CC1 [CBK265783C],102.224
4,O=C(O)c1c(Cl)c(C(=O)O)c(C(=O)O)c(Cl)c1C(=O)O [CBK261177],104.809
5,CCN(CC)C(=O)CN1CCC(Oc2cncc(OCc3ccc(Cl)c(Cl)c3)n2)C1 (stereo not drawn) [CBK084431],95.3815
6,CC(C)(C)C(=O)N1CCC(n2nc(-c3cccs3)ccc2=O)CC1 [CBK284182],82.723
7,COc1cccc(CN2CCN(C(=O)c3ccco3)[C@@H](C)C2)c1 [CBK284267],66.9725
8,CC(C)(C)c1cn2c3ccccc3nc2n1CCN1CCOCC1 [CBK278252C],92.1133
9,CCc1c(O)c2ccccc2n(Cc2ccccc2)c1=O [CBK219367],94.6534
10,CCN(Cc1cccc(C(=O)O)c1)Cc1noc(C2CCC2)n1 [CBK307708],28.8941
11,O=C(CSCc1c(Cl)cccc1Cl)Nc1cccc(-c2nnc(-c3ccccc3)o2)c1 [CBK267435],89.2095
12,CCN(CC)C(=O)CN1C(=O)N2CCN=C2c2ccccc21 [CBK283944],97.7482
13,Cc1cccnc1Nc1ccc(C2CCCN(C(=O)Cc3c[nH]c4ccccc34)C2)nc1 (stereo not drawn) [CBK285968],112.388
14,COc1ccc(C(=O)Nc2c(C)nn(-c3ccccc3)c2C)cc1S(=O)(=O)NC1CC1 [CBK297906],125.771
15,CCc1nn(CC(=O)N2CCCC2)c(=O)c2cc3sc(C)cc3n12 [CBK284122],78.0595
16,CN(C)CCN(C)C(=O)c1cc(-c2ccc(Cl)cc2)[nH]n1 [CBK115928],93.221
17,Cc1cc(C)n(CCOc2nonc2N)n1 [CBK025818],96.3335
18,Cc1cc(NS(=O)(=O)c2cc(C(F)(F)F)cc(C(F)(F)F)c2)n(C)n1 [CBK067261],90.0417
19,CCC1C(=O)NCCN1C(=O)Cc1cccc2cccnc12 (stereo not drawn) [CBK281728],102.964
20,COc1ccc(S(=O)(=O)NC[C@H]2C[C@@H]3CC[N@]2C[C@@H]3CN2CCCCC2)cc1 [CBK288764],107.276
21,COc1ccc(NC(=O)c2cc3nc(C)ccc3o2)cc1 [CBK287663],66.84

row,SMILES,% of control remaining
1,CN(C)CCCn1c(=O)[nH]c2sc3c(c2c1=N)CC(C)(C)OC3 [CBK269103],84.9668
2,c1cncc(Nc2cccc(-c3ccco3)n2)c1 [CBK037742],135.126
3,Cc1ccc(Nc2nc(N3CCOCC3)nc3nccnc23)cc1 [CBK287664],76.1316
4,COc1ccc(NC(=O)N[C@H]2C[C@H]3C(=O)N[C@H](Cc4ccccc4)C(=O)N3C2)cc1 [CBK289227],125.115
5,Cn1cc(-c2nccnc2OCc2ccccn2)cn1 [CBK107067],98.9068
6,CC(=O)N1CCC(C(=O)NCCc2cccc(C)c2)C1 (stereo not drawn) [CBK281952],104.163
7,CC1(O)CCN(Cc2nnnn2-c2ccc(S(C)(=O)=O)cc2)CC1 [CBK304166],29.1138
8,Cc1ccc(-c2nnc(CNC(=O)c3cccc(Cl)c3)o2)s1 [CBK284646],102.092
9,O=C(O)c1ccc(S(=O)(=O)c2ccc(O)cc2)cc1 [CBK261411],77.1654
10,CCN(CC(=O)NCc1cccnc1)S(=O)(=O)c1ccc(F)cc1 [CBK269503],91.9693
11,Cc1ccc(S(=O)(=O)N(CC(=O)NCc2ccco2)c2cccc(C)c2)cc1 [CBK264125],105.962
12,Cc1cccc(C(=O)Oc2ccc(C(c3c(C)n[nH]c3O)c3c(C)n[nH]c3O)cc2)c1 [CBK264804],117.433
13,O=S(=O)(NC1c2cccc3cccc(c23)C1Sc1ncccn1)c1ccccc1 (stereo not drawn) [CBK264706],98.4768
14,Cc1nn(C)cc1-c1cncn1Cc1ccc2c(c1)CCCO2 [CBK281797],115.162
15,Cc1nn(-c2ccccc2)c2c1C(C(=O)c1ccc3c(c1)OCO3)CC(=O)N2 (stereo not drawn) [CBK294436],98.7991
16,COc1ccc(C(NC(C)=O)c2nccc3cc(OC)c(OC)cc23)cc1OC (stereo not drawn) [CBK270219],91.2844
17,COc1cccc(Sc2cc(N3CCCC3)ncn2)c1 [CBK089533],96.5934
18,CCN1C(=O)C2(CC(=O)N(CCOC)C2=O)c2cc(Cl)ccc21 (stereo not drawn) [CBK075244],85.2815
